From PubChem BioAssay AID463173 (ICCB-Longwood Screening Facility, Harvard Medical School, 2010)
The campaign covered roughly 52,000 compounds. About 1,700 (3.3%) were called active. Cut-off read from the data, not from the text of the source: active = survival mostly below about 52% (no sharp cut-off); inactive = mostly above about 56%. This is one part of the list.

test system: Wild type; assay: growth inhibition of S. aureus wild type versus tarO mutant, primary screen, teichoic acid synthesis inhibitors, RN4220, OD600 (AID 463173); conditions: S. aureus RN4220 wild type/DeltatarO growth, OD600, 18 h, stronger effect = lower value, screened at 18.75 µg/mL (by protocol)

Compound | survival
Cc1ccc(C)c(NC(=O)Cn2c(=O)oc3cc(S(=O)(=O)NCc4ccccc4)ccc32)c1 | inactive: 85%
CCOC(=O)c1c(NC(=O)/C=C/c2ccc(OC)cc2)sc2c1CCC(C)C2 (stereo unspecified) | inactive: 31%
O=C(CSc1nc(=O)[nH]c2c1CCCC2)NCc1ccc(Cl)cc1 | inactive: 73%
CCN(CCCNC(=O)c1cc2c(=O)[nH]c3ccc(C)cc3c2s1)Cc1ccccc1 | inactive: 77%
Cc1ccccc1C(=O)Nc1sc2c(c1C(=O)N1CCC(C)CC1)CCCC2 | inactive: 64%
Cc1cc(C)c2[nH]c(=O)c(C(c3nnnn3CC3CCCO3)N3CCN(c4ccccc4F)CC3)cc2c1 (stereo unspecified) | inactive: 113%
CCOC(=O)c1c(NC(=O)c2ccc(S(=O)(=O)N(C)C)cc2)sc2c1CCN(C)C2 | inactive: 63%
CCCCSCCCNC(=O)c1cc(-c2cccnc2)nc2ccc(S(=O)(=O)N3CCC(C)CC3)cc12 | inactive: 89%
COc1ccc(NC(=O)Cn2c(=O)n(CC3CCCO3)c(=O)c3ccccc32)cc1 (stereo unspecified) | inactive: 87%
CCCCCCNc1ncnc2c1sc1nc(N3CCOCC3)c3c(c12)CCCC3 | inactive: 77%
Cc1oc2ccc(O)c(CN3CCN(Cc4ccccc4)CC3)c2c1C(=O)Nc1cccc(Cl)c1C | inactive: 81%
CCCN(C(=O)c1nn(-c2ccc(C)cc2)c(=O)c2c1c1ccccc1n2C)c1ccccc1C | inactive: 88%
O=C(Nc1cccc(C(=O)N2CCN(c3ccc(F)cc3)CC2)c1)c1nsc2ccccc12 | inactive: 92%
O=C(Nc1ccc(Oc2ccccc2)cc1)C1CCN(S(=O)(=O)c2ccccc2)CC1 | inactive: 74%
CC(=O)c1ccc(N2CCN(C(=O)Cn3ncc4c3-c3ccccc3OC4)CC2)cc1 | inactive: 75%
COc1ccccc1/C=C/c1nc(C#N)c(NC(C)c2ccccc2)o1 (stereo unspecified) | inactive: 76%
CCOc1ccc(NC(=O)c2cnn3c(C(F)F)cc(-c4ccc(C)cc4)nc23)cc1 | inactive: 67%
Cc1c(Cl)cccc1NC(=O)CN1C(=O)CSc2ccc(S(=O)(=O)N3CCCC3)cc21 | inactive: 108%
Cc1[nH]c2ccc(-c3nnc(SCc4ccc(C(=O)O)cc4)o3)cc2c1C | inactive: 91%
CC(=O)c1cc(-c2ccc(F)cc2)n(CCC(=O)NCc2ccc(C)cc2)c1C | inactive: 72%
Cc1ccccc1CCNCc1c(C(=O)O)c(C)n(Cc2c(F)cccc2Cl)c1C | inactive: 83%
Cc1ccc(NC(=O)CN2CCN(C3CCCCC3)C(=O)C2=O)cc1 | inactive: 89%

Compound | survival
CCc1ccc(Sc2cc(C(=O)NCCCN3CCCC(C)C3)c3ccccc3n2)cc1 (stereo unspecified) | inactive: 71%
Cc1ccc(-n2ncc(C(=O)N3CCN(C4CCCCC4)CC3)c2C2CCN(C(=O)OC(C)(C)C)CC2)cc1 | inactive: 84%
O=c1cc(COc2cccc(C(F)(F)F)c2)nc2sc3c(n12)CCCC3 | inactive: 89%
CC(C)NC(=O)c1nn(C)c2c1CS(=O)(=O)c1ccccc1-2 | inactive: 80%
COC(=O)c1cc(Cl)ccc1NC(=O)Cn1c(C)cc(C)c(C#N)c1=O | inactive: 93%
COc1ccccc1CNc1nc(-c2ccco2)nn1S(=O)(=O)c1ccc(C)cc1 | inactive: 88%
Clc1ccc(CN2CCc3nc(Nc4ccc5c(c4)OCCO5)ncc3C2)cc1 | inactive: 78%
CCOc1ccccc1CN(CCc1ccc2c(c1)OCO2)Cc1cc(OC)c(OC)cc1OC | inactive: 72%
CC(=O)Nc1ccc2nc(SCc3ccccc3)sc2c1 | inactive: 60%
CC(C)=CCC(C)(C)CNc1ccc(C)cc1 | inactive: 99%
CCOC(=O)N1CCC(NC(=O)c2cnn(-c3cccc(C)c3)c2C2CCN(C(=O)OC(C)(C)C)CC2)CC1 | inactive: 72%
Cc1ccccc1C(=O)NCc1ccc2c(c1)CCN2C(=O)c1ccccc1 | inactive: 71%
CCn1c(=O)c2sccc2n2c(CCCC(=O)N3CCN(c4ccccc4OC)CC3)nnc12 | inactive: 98%
CCn1c(SCC(=O)Nc2cccc(Cl)c2)nnc1-c1nonc1NC(C)=O | inactive: 98%
Cc1ccc(-c2nsc(NC(=O)c3oc4cc(C)c(Cl)cc4c3C)n2)cc1 | inactive: 90%
COc1ccc(CNC(=O)C(=O)NCC(c2cccs2)S(=O)(=O)c2ccc(C)cc2)cc1 (stereo unspecified) | inactive: 74%
O=C(c1ccc(F)cc1)N1c2ncnn2C2(CCCCC2)[C@@H]2CCCC[C@@H]21 | inactive: 82%
COc1cc2[nH]c(=O)n(Cc3ccc(C(=O)N4CCN(c5cccc(C)c5C)CC4)cc3)c(=O)c2cc1OC | inactive: 152%
CCOC(=O)c1ccc(NC(=O)c2ccc3c(c2)CCN3S(=O)(=O)c2ccc(Cl)cc2)cc1 | inactive: 99%
CCN(c1ccccc1)C1SC(=O)N(c2ccccc2)C1=O (stereo unspecified) | inactive: 97%
COc1ccc(CNC(=O)c2cc(Nc3ccc(OC)cc3OC)nc3ccccc23)cc1 | inactive: 86%
Cc1cccc(NS(=O)(=O)c2nnc(NC(=O)C3CCCCC3)s2)c1 | inactive: 48%

Compound | survival
CC(CNC(=O)c1ccc(Cn2c(SCc3ccccc3)nc3cccnc32)cc1)c1ccccc1 (stereo unspecified) | inactive: 69%
COc1ccc(CCNC(=O)Cn2nnc(-c3cccc(C(F)(F)F)c3)n2)cc1OC | inactive: 94%
Cc1ccc(-n2nc(CO)c(C(=O)NCCO)n2)cc1 | inactive: 86%
Cc1ccc(C)c(CN2C(=O)c3ccccc3Sc3ccc(C(=O)NCCCOC(C)C)cc32)c1 | inactive: 68%
CCOc1ccc(NC(=O)c2oc3ccccc3c2NC(=O)Cc2ccc(OC)c(OC)c2)cc1 | inactive: 72%
COc1ccc2oc(=O)cc(CN3CCN(C(=O)c4ccccc4)CC3)c2c1 | inactive: 84%
O=C(Nc1ccc(O)c(-c2nc3ccccc3o2)c1)c1cccs1 | inactive: 85%
O=C(O)C1CCC(N2C(=O)C3C4C=CC(C4)C3C2=O)CC1 (stereo unspecified) | inactive: 110%
CC(C)c1nn2c(=O)cc(COC(=O)c3ccc(NC(=O)c4ccccc4Cl)cc3)nc2s1 | inactive: 99%
O=C(CSc1n[nH]c(-c2ccccc2Cl)n1)N1CCN(c2ccc(F)cc2)CC1 | inactive: 73%
O=C1CNC(=O)N1Cc1ccc(F)cc1 | inactive: 116%
CCOC(=O)c1ccc(N2C(=O)c3n[nH]c(C)c3C2c2ccc(C(C)C)cc2)cc1 (stereo unspecified) | inactive: 78%
COc1ccc(C(=O)Nc2nc3ccc(S(=O)(=O)N4CCCC4)cc3s2)cc1 | inactive: 84%
Cn1cc(S(=O)(=O)N2CCCC2)cc1C(=O)Nc1ccc(C(F)(F)F)cc1 | inactive: 109%
O=C(Nc1ccc(NC(=O)c2ccc(Br)cc2)c(Cl)c1)c1ccc(Br)cc1 | inactive: 74%
COc1ccccc1-c1nnc(C2CCN(S(=O)(=O)c3ccccc3)CC2)o1 | inactive: 81%
COc1ccc(CNc2oc(COc3cccc(C)c3)nc2C#N)cc1 | inactive: 63%
Cc1cc(C(F)F)n2ncc(C(=O)NCc3ccccc3)c2n1 | inactive: 108%
COc1cccc2cc(-c3nnc(-c4ccc(Cl)cc4)o3)c(=O)oc12 | inactive: 108%
CCc1nn(CC(=O)N2CCN(c3cccc(C(F)(F)F)c3)CC2)c(=O)c2cc3occc3n12 | inactive: 81%
COc1cccc(-c2nc(CS(=O)(=O)CC(=O)NCCCN3CCN(C)CC3)c(C)o2)c1 | inactive: 85%
CCCCCn1c(=O)[nH]c2cc(C(=O)Nc3ccc(OC)c(OC)c3)ccc2c1=O | inactive: 74%

Compound | survival
COc1cccc(N2CCN(C(=O)Cn3cnc4onc(-c5ccc(F)cc5)c4c3=O)CC2)c1 | inactive: 127%
COc1ccc(C)cc1NC(=O)C1CCCN(S(=O)(=O)c2ccc3c(c2)oc(=O)n3C)C1 (stereo unspecified) | inactive: 89%
CCOC(CSc1nnc2c3ccccc3n(CC)c2n1)OCC | inactive: 102%
Cc1cccc(Cn2c(SCc3ccc(C(=O)NCCc4ccccc4)cc3)nc3cccnc32)c1 | inactive: 82%
Cc1ccc(SCc2nc(-c3ccc(C(=O)NCc4ccccc4Cl)cc3)oc2C)cc1 | inactive: 82%
CC(=O)Nc1cccc(NC(=O)C2(c3cccs3)CCOCC2)c1 | inactive: 78%
Cn1c(=O)c(=O)n(C)c2cc(N3CCCC3)c(NC(=O)c3ccc(C(C)(C)C)cc3)cc21 | inactive: 75%
COc1cccc(CNC(=O)CN(c2ccc(C(C)C)cc2)S(=O)(=O)c2c(C)n[nH]c2C)c1 | inactive: 94%
COc1cccc(-c2nnc3n(CCc4ccccc4)c(=O)c4ccccc4n23)c1O | inactive: 87%
CCOC(=O)CC(=O)CSc1nc2ccccc2c(=O)n1CCc1ccccc1 | inactive: 72%
Cc1ccc(C(=O)CCCn2nnc(-c3ccncc3)n2)cc1C | inactive: 92%
CCc1ccc(NC(=O)C2CCN(S(=O)(=O)c3c(C)noc3/C=C/c3cccs3)CC2)cc1 | inactive: 79%
CC(C)(C)C(=O)N1CCCC(c2nc3c(nnn3Cc3ccc(C(C)(C)C)cc3)c(=O)[nH]2)C1 (stereo unspecified) | active: 50%
CCn1cc(C(=O)NCCOC)c(=O)c2cc(S(=O)(=O)N3CCOCC3)ccc21 | inactive: 77%
COc1ccc(S(=O)(=O)N(CCc2ccccc2)CC(=O)Nc2cc(C)ccc2C)cc1 | inactive: 61%
Cc1cccc(NC(=O)CSc2cn(CC(=O)N3CCOCC3)c3ccccc23)c1 | inactive: 93%
O=C(CCC1N=C2c3ccccc3N=C(SCC(=O)Nc3ccccc3F)N2C1=O)NCc1cccs1 (stereo unspecified) | inactive: 85%
CCOC(=O)C1=C(c2ccccc2)Nc2ncnn2C1c1ccc(Cl)cc1 (stereo unspecified) | inactive: 81%
COc1cc(OC)cc(C(=O)Nc2ccc3oc(-c4ccc(Cl)cc4)nc3c2)c1 | inactive: 90%
O=C(c1cccc(C(F)(F)F)c1)C1CCN(C(=O)N2CCOCC2)CC1 | inactive: 119%
